Measured values reported in PubChem BioAssay AID1460 (National Center for Advancing Translational Sciences (NCATS), 2008).
The campaign covered roughly 270,000 compounds. About 5,800 (2.1%) were called active. This list was built around the results that the source calls inconclusive (neither active nor inactive); the mix of calls is not that of the screen. The call rests on the fitted dose curve; in most records, active means well fitted inhibition curve with a large enough effect; inconclusive means small, poorly fitted or top-dose-only effect; inactive means flat fitted curve, though single readings scatter. Potencies of inconclusive entries are doubtful fits and often do not repeat.

biological target: Microtubule-associated protein tau (Homo sapiens) (UniProt P10636); assay: qHTS for Inhibitors of Tau Fibril Formation, Thioflavin T Binding; conditions: recombinant tau K18 P301L, heparin-induced fibrillization, ThT fluorescence; series mostly up to 57.4 µM; further: nearly all actives have a fitted effect of over 55% in size
Procedure, shortened: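 Fibril formation assay: tau K18 P301L at 15 uM with trace Alexa 594 label, heparin inducer 20 uM, pH 7 sodium acetate buffer, 37 C for 6 hr; endpoint ThT signal.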
Potency means the concentration at half of the fitted maximal effect; tags describe the fitted curve by direction and shape.

Sequence of UniProt P10636 (P10636 whole entry, looked up): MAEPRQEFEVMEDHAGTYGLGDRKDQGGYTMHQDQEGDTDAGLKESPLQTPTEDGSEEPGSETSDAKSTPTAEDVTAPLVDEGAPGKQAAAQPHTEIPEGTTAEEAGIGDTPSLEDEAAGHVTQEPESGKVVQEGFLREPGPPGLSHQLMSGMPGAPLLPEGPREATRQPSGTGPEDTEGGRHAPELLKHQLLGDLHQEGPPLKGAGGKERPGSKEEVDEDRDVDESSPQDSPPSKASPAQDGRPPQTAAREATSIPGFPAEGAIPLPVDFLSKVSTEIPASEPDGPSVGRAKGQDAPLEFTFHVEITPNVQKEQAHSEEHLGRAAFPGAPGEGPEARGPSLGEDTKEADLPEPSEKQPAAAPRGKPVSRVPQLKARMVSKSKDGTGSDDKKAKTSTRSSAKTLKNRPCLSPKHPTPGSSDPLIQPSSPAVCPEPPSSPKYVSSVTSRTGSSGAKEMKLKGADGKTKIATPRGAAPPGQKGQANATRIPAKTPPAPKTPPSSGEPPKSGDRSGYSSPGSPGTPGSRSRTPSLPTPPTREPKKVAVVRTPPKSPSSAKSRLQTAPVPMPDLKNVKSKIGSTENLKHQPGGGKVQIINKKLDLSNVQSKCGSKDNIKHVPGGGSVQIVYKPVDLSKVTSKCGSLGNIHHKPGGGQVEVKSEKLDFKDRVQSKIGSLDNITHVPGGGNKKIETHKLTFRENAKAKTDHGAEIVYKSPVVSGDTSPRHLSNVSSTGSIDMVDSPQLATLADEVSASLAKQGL

Row | SMILES | Potency
1 | CCCCN(CC)CCCNC(=O)Cn1nc(CC)n2c(cc3sccc32)c1=O | inactive
2 | COCCCn1c(C)nc2c(c1=O)c1nc3ccccc3nc1n2CCc1ccccc1 | inconclusive: 35.5 µM [inhibitor, partial curve]
3 | CCOC(=O)c1ccc(-c2ccc(/C=N/NC(=O)c3cncc(Br)c3)o2)cc1 | inconclusive: 2.24 µM [inhibitor, full curve]
4 | CCC1=C(C(=O)OC)C(c2cc(OC)ccc2OC)C(C#N)=C(N)O1 (stereo unspecified) | inconclusive: 44.7 µM [inhibitor, single point]
5 | O=C1C(C=Nc2ccccc2)=C(O)c2ccccc21 | inconclusive: 10 µM [inhibitor, partial curve]
6 | CC1Cc2ccccc2N1CC(=O)NC(=O)NCc1ccco1 (stereo unspecified) | inconclusive: 31.6 µM [inhibitor, single point]
7 | Cc1ccc(-c2onc(C)c2C)cc1S(=O)(=O)N1CCC(C)CC1 | inactive
8 | NC(N)=Nc1ccc(Cl)cc1 | inactive
9 | CCOc1ccc(C2C(=O)N(C3CCCCC3)CC(=O)N2Cc2ccccc2OC)cc1OC (stereo unspecified) | inconclusive: 31.6 µM [inhibitor, single point]
10 | O=c1c2ccccc2c(C=Nc2ccc(O)cc2)c(O)n1-c1nccs1 | inconclusive: 20 µM [inhibitor, partial curve]
11 | COc1ccc(/C=C2\CCn3c2nc2cc(C(=O)O)ccc2c3=O)cc1O | inactive
12 | O=c1oc2c3c4c(cc2s1)CCCN4CCC3 | inconclusive: 25.1 µM [inhibitor, partial curve]
13 | O=c1c2c(-c3ccc(Cl)cc3)csc2ncn1/N=C/c1cccc([N+](=O)[O-])c1O | active: 15.8 µM
14 | CCCn1c(-c2ccc(F)cc2)nc2c(NCCCCN(C)C)nc(C)nc21 | inactive
15 | [N-]=[N+]=NCC1OC(n2cnc3c(=O)[nH]c(N)nc32)C(O)C1O (stereo unspecified) | inactive
16 | CCOc1cc([C@@H]2C[C@H]3CN(c4ccccc4)C(=O)[C@]34CCCN24)ccc1OC | inconclusive: 31.6 µM [inhibitor, partial curve]
17 | CC(=O)Nc1ccc(OCC(O)CN2CCN(c3ccc(Cl)cc3)CC2)cc1 (stereo unspecified) | inconclusive: 6.31 µM [inhibitor, partial curve]
18 | O=C1CCN(c2ncccc2[N+](=O)[O-])CC1 | inactive
19 | CS(=O)(=O)c1ncc(Cl)c(C(=O)N2CCN(c3cccc(Cl)c3)CC2)n1 | inconclusive: 15.8 µM [inhibitor, partial curve]
20 | O=C(CN1C(=O)COc2ccc(S(=O)(=O)N3CCOCC3)cc21)NCc1ccc(Cl)cc1 | inactive
21 | CSc1nc2ccc(NS(=O)(=O)c3ccc(Cl)s3)cc2s1 | inconclusive: 31.6 µM [inhibitor, single point]
22 | COCCCNc1nc2c(c(=O)n(Cc3ccccc3)c(=O)n2C)n1C | inactive
23 | Cc1ccc(OCc2ccc(C(=O)Nc3ccc(C(N)=O)cc3)o2)c([N+](=O)[O-])c1 | inconclusive: 2.82 µM [inhibitor, full curve]
24 | CC(C)n1cnc2c(NCc3ccccc3)nc(NCc3ccccc3)nc21 | inconclusive: 28.2 µM [inhibitor, single point]

Row | SMILES | Potency
25 | Cc1cc2c(cc1C)-c1c(ssc1=Nc1ccc(S(N)(=O)=O)cc1)C(C)(C)N2 | inconclusive: 2.51 µM [inhibitor, full curve, poor fit]
26 | CCOC(=O)/C(=C/c1ccc(OC(=O)c2ccccc2)cc1)C(C)=O | inconclusive: 17.8 µM [inhibitor, partial curve]
27 | Cc1cccc(-n2c(=O)[nH]c3c(C(N)=O)nc(C(C)C)nc32)c1 | inactive
28 | COC(OC)c1nc(SCC(=O)Nc2cccc(Cl)c2)ncc1C(=O)O | inconclusive: 25.1 µM [inhibitor, single point]
29 | O=C(Nc1ccccc1)ON=C1c2ccccc2-c2ccccc21 | inconclusive: 39.8 µM [inhibitor, partial curve]
30 | O=C(Nc1ccc(Cl)cc1)c1ccc2oc(=O)n(Cc3ccccc3)c2c1 | inactive
31 | O=C(Nc1sc2c(c1C(=O)c1ccc(Cl)cc1)CCCC2)c1cccnc1 | inconclusive: 20 µM [inhibitor, partial curve]
32 | CC(=O)Nc1cccc(C(=O)/C=C/c2ccc(F)cc2)c1 | inconclusive: 3.98 µM [inhibitor, full curve]
33 | CCC1CCC(C(=O)NNC(=O)c2cc(-c3ccco3)[nH]n2)CC1 (stereo unspecified) | inconclusive: 11.2 µM [inhibitor, partial curve]
34 | CCOC(=O)N1CCC(NC(=O)c2ccc3c(c2)N(Cc2ccccc2)C(=O)c2ccccc2S3(=O)=O)CC1 | inconclusive: 39.8 µM [inhibitor, single point]
35 | O=C(CCCOc1ccc(Cl)cc1Cl)Nc1cccnc1 | inactive
36 | Cc1c(C(=O)NCc2ccccc2Cl)sc2nc3n(c(=O)c12)CCCC3 | inconclusive: 12.6 µM [inhibitor, partial curve]
37 | CN(c1ccccc1)c1cc(=O)[nH]c(=O)[nH]1 | inactive
38 | CC(C)Cn1cc(NC(=O)NCc2ccc(Cl)cc2)c2ccccc2c1=O | inactive
39 | C/C(N)=C(/C#N)C(=O)COc1ncnc2ccccc12 | inconclusive: 35.5 µM [activator, partial curve]
40 | Cn1nc(-c2ccc(N3CCCCC3)c(NC(=O)c3ccco3)c2)c2ccccc2c1=O | inconclusive: 28.2 µM [inhibitor, partial curve]
41 | O=[N+]([O-])O[C@H]1CO[C@H]2[C@@H]1OC[C@H]2O | inactive
42 | c1ccc(N2CCN(c3c4c(nc5ncnn35)CCC4)CC2)cc1 | inconclusive: 10 µM [inhibitor, partial curve]
43 | O=c1cc(O)n(-c2ccccc2)c(=S)[nH]1 | inconclusive: 22.4 µM [inhibitor, single point]
44 | CCOc1ccccc1NC(=O)Nc1cccc(NC(C)=O)c1 | inconclusive: 2.82 µM [inhibitor, full curve, poor fit]
45 | CCOc1ccc(Nc2nc(N)c(C(=O)c3ccccc3Cl)s2)cc1 | inconclusive: 15.8 µM [inhibitor, partial curve]
46 | COc1ccc(NC(=O)c2nc(C)n(-c3ccc([N+](=O)[O-])cc3)n2)cc1 | inconclusive: 28.2 µM [inhibitor, partial curve]
47 | Cc1cccc(OCCCC(=O)Nc2ccc(N(C)C)cc2)c1 | active: 12.6 µM
48 | O=C(c1cc(-c2ccc(Br)cc2)n[nH]1)N1CCN(S(=O)(=O)c2ccc(Br)s2)CC1 | inconclusive: 3.55 µM [inhibitor, single point]

Row | SMILES | Potency
49 | Cc1csc(Nc2ccccc2)[n+]1-c1ccccc1 | inactive
50 | Cc1ccc(Cl)cc1NC(=O)c1csnn1 | inconclusive: 17.8 µM [inhibitor, partial curve, poor fit]
51 | CC(=O)OC1=C(C(C)=O)N(Cc2ccccc2)S(=O)(=O)c2ccccc21 | inconclusive: 15.8 µM [inhibitor, partial curve]
52 | COc1ccc(C(=O)NNC(=O)CSc2nnc(COc3ccccc3OC)n2C)cc1 | inactive
53 | COc1ccc(NC(=O)CSc2nc(O)cc(=O)n2C)cc1 | inconclusive: 31.6 µM [inhibitor, partial curve]
54 | Cc1ccccc1N1C(=O)c2sc3nc4c(c(=O)n3c2C1=O)CCC4 | inconclusive: 25.1 µM [inhibitor, partial curve]
55 | CC(C)(C)C1CCc2nc(NC(=O)Cc3ccccc3)sc2C1 (stereo unspecified) | inconclusive: 35.5 µM [inhibitor, single point]
56 | O=C(c1cc(F)c(F)cc1Cl)N1CCCCC1 | inactive
57 | NC(=O)c1cc2ccccc2o/c1=N/NC(=O)c1cccs1 | inconclusive: 17.8 µM [inhibitor, partial curve]
58 | CCCCCCCCCCCC(=O)NC(Cc1ccc(OC)c([N+](=O)[O-])c1)C(=O)O (stereo unspecified) | inactive
59 | COc1ccc2nc(SCc3nc(N)nc(Nc4ccccc4)n3)[nH]c2c1 | inconclusive: 8.91 µM [inhibitor, partial curve]
60 | Oc1ccc(NCc2ccccc2OCc2ccc(Cl)cc2)cc1 | active: 14.1 µM
61 | Cc1ccc(OCC(=O)Nc2nnc(S(=O)(=O)N3CCCCCC3)s2)cc1 | inconclusive: 1.78 µM [inhibitor, full curve]
62 | O=C1C(=O)N(CCN2CCOCC2)C(c2ccccn2)/C1=C(/O)c1ccc(Cl)cc1 (stereo unspecified) | inconclusive: 20 µM [inhibitor, partial curve]
63 | CCOc1cc(C(=S)N2CCCCC2)ccc1OCC(=O)NCc1ccccc1 | inactive
64 | COCCNC(=S)NNc1cccc(C(=O)O)c1 | inconclusive: 10 µM [inhibitor, partial curve]
65 | O=C(C1CCC1)N1CCc2cc(S(=O)(=O)Nc3ccc4c(c3)OCO4)ccc21 | inconclusive: 14.1 µM [inhibitor, partial curve]
66 | COc1cccc(C(=O)Nc2nnc(S(=O)(=O)N3CCCC3)s2)c1 | inactive
67 | O=C(Cn1ccc(C(F)(F)F)n1)N=Nc1c(O)[nH]c2ccc(Br)cc12 | inconclusive: 28.2 µM [inhibitor, partial curve]
68 | O=[N+]([O-])c1ccccc1-c1cc(-c2ccccc2O)n[nH]1 | inactive
69 | Cc1cccc(C(=O)NNc2ncnc3c2cnn3-c2ccc(C)cc2C)c1 | inactive
70 | Cc1nn(-c2ccccc2)c(N)c1C1(O)C(=O)Nc2ccc([N+](=O)[O-])cc21 (stereo unspecified) | inconclusive: 17.8 µM [inhibitor, single point]
71 | CCOc1ccc(Nc2nc(NCCN3CCOCC3)nc(OC)n2)cc1 | inconclusive: 6.31 µM [inhibitor, partial curve]
